The list shows a part of the results. At the low end of the ranking the order means little.
biological target: T1, GST-Rok-C97-191 (UniProt O34857); assay: protein binding microarray; conditions: Rok is a gene silencer of Bacillus subtilis; high values mean tight binding; most listed sequences are background and not binding sites; double strand, one strand shown;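 note: rank score from −0.5 (least bound) to 0.5 (best bound)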
T1 sequence: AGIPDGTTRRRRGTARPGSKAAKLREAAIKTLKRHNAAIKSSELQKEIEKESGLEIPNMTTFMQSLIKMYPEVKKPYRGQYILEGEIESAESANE

Sequence	binding signal [E-score]
AAGAGCGC	-0.252
AAGCGGGT	-0.0644
GACCAACC	-0.102
GGTGCCTA	-0.184
CGCTTCAA	-0.123
ATGCAAAT	0.221
ATCGTACA	0.178
GGTCTATA	-0.075
ACTAAACC	-0.0801
CTCTCTTC	-0.205
ACCGAAAC	-0.0101
CATGATAG	0.108
TACTGCTA	0.334
CTACACAA	0.234
ACCAGCCA	-0.264
GAGCCCAC	-0.219
CCCCTTAG	-0.292
AGCGCTGG	-0.00569
TCGCTACA	-0.0629
GAAATGCC	-0.0949
ACGAATGC	-0.141
ATCACTTC	0.00542
GACCATAC	0.14
AGGCAAAC	-0.104
AAGCCTCC	-0.276

Sequence	binding signal [E-score]
GTGAAGTA	0.066
GCGCATGA	-0.138
CAGCACTG	-0.198
ACAACTGA	-0.0786
CAACAAAA	0.13
AAGAACGT	0.0755
AGTTACGC	0.0861
TGCCGCAA	0.018
ACTCATCC	0.00841
AGGACTGC	-0.305
AGCTTTCA	-0.158
CACTATGA	-0.0111
CGGTACTA	0.257
GGACGACA	0.000282
CAGGCGAC	-0.00727
ACATAGTC	0.179
TCATAGAA	0.0351
CGATACAC	0.155
TAGATGAA	0.131
CACATGCG	-0.174
AATGCATA	0.0752
ACAGGTTA	0.0291
GCCGACGC	-0.161
TGCCACCA	-0.151
ATCTTGCG	-0.213

Sequence	binding signal [E-score]
CACGGGGG	-0.331
TCAAGACA	-0.19
ATCGCCGC	-0.0266
AACATGTC	-0.039
ATATCAAG	0.127
CTCCTAGC	0.0828
ATTTTAAG	0.142
GCGAACAC	-0.259
ACAAGTAA	0.247
CTGTCGAC	-0.044
AACGTGAC	-0.0729
TGAATCCA	0.0381
AGAAAATA	0.342
GGAGCTCA	-0.0848
GTAATTTA	0.353
AATACTCT	0.131
CCGGTAGC	0.0727
AAACCGCC	-0.208
AAAAGAAC	-0.1
ACAGGTGA	0.0974
GAGGGATC	-0.17
GCGTCCAA	-0.0249
CTCTGAAG	-0.19
AGCATCTC	-0.0616
ATAAGAGA	-0.0534

Sequence	binding signal [E-score]
AGTTATAC	0.241
GTCGTGCA	-0.00336
CTGTCCCC	-0.191
ACGAGTAG	-0.0374
AAATGGCT	-0.0734
ACCAAAGG	-0.141
CTGCCTCC	-0.356
ATCCTCGG	-0.269
CGTACTAG	0.0424
ATACATGA	0.268
CTGGGTGA	-0.322
CGGACCAC	-0.143
ACCTAGGA	0.0393
GCCTCCGA	-0.282
CTGCGGGC	-0.131
GTAGGAGA	0.0828
AGACCGTG	-0.0894
ATCACGCC	-0.135
ATTCCGCC	-0.115
AATCGTGA	-0.118
TATACCCA	0.112
CAGTTAAC	0.0265
TAACTGTA	0.255
GTCAATGA	-0.108
ACAGTGCT	-0.159

Sequence	binding signal [E-score]
GCATACAC	0.0144
AGAACGCT	0.0663
CACACGGG	-0.16
GCGGCCAC	-0.254
GTCATCAA	-0.132
CCCACGAG	-0.091
CGTTAAAC	-0.0286
CGTATGTC	-0.0562
CCTTGTAG	0.0318
CAGCAGAG	-0.296
GGCTACAA	0.0734
ACTGGCAA	-0.109
ACCTCAAG	0.0574
AGCCTAGA	-0.124
CAAGGGTG	-0.101
AGGGTCCG	-0.242
CCCAGCCA	-0.271
ACGTCTCG	-0.139
CTCACCAG	-0.245
CCTAGCGC	0.0615
AATGCCAG	0.0127
CCATCGAG	0.015
CGACGTAC	-0.0738
AGGCGTCA	-0.251
CCGGACAG	-0.0562

Sequence	binding signal [E-score]
ACTGCGCC	-0.196
AGATGCAG	-0.133
GAACATAA	0.144
GCTTAAAA	-0.0304
ACCTGGCC	-0.175
AAAAAGCC	-0.198
ATAGACGA	-0.0484
ACCCCCGG	-0.103
CGTAACTA	0.314
CATTGGAC	-0.155
ATCGTTGA	-0.0991
CCTTAGCC	-0.241
ATTACTTA	0.2
AATAAGTC	0.139
CTGCTTCC	-0.102
GGAGCAAA	-0.109
ACTGTACG	0.223
ATACGATA	0.316
CCTTAGAA	0.0764
CACGTCGA	0.183
ACTAGAAG	0.199
GGAAGCCA	-0.199
CTATCGGA	0.148
AACGTGGT	0.174
AGGGGAAG	-0.268

Sequence	binding signal [E-score]
ACAGGCCG	-0.175
CGTCACTA	0.137
AGGTCCTA	-0.0587
CCCTTGTA	0.18
CAATTATA	0.291
AAAGTATA	0.276
TGCAACAA	0.0865
CAGCTAAG	-0.101
ATGTTACC	0.207
ACTTACGG	0.0959
TTCGGAAA	-0.0109
ACTGCGAA	-0.0463
CTGGATAC	-0.0748
AAACAATT	0.15
GACGGAGA	-0.222
CGCGTTGA	-0.0143
CCCGTCCA	-0.05
ACGGATAG	0.0351
ATCCACTG	-0.124
TGCACGCA	-0.0836
CCATATCG	0.058
GTTTTCTA	0.256

Reference: PMC6212790
